The labels stand for the following.
T1: RBFOX1 RRM (Homo sapiens, UniProt Q9NWB1 109-208)
T1 sequence: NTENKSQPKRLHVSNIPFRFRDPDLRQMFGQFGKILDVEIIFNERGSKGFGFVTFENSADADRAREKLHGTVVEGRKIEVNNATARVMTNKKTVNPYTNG

B1: UGAUAGA (DNA:RNA)
RNA: GGGAGACCGGAAUUCAGAUUGUCCUGAUAGAUUAAAUCCCGUCGUAGCCACCA
DNA 1: CAATCTGAATTCCGGTCTCCC
DNA 2: TGGTGGCTACGACGGGATT
B2: GCCUAGC (DNA:RNA)
RNA: B1 RNA with U25G, G26C, A27C, A31C
DNA 1: CAATCTGAATTCCGGTCTCCC
DNA 2: TGGTGGCTACGACGGGATT
B3: CGCUCCA (DNA:RNA)
RNA: B1 RNA with U25C, A27C, A29C, G30C
DNA 1: CAATCTGAATTCCGGTCTCCC
DNA 2: TGGTGGCTACGACGGGATT
B4: AACUGCG (DNA:RNA)
RNA: B1 RNA with U25A, G26A, A27C, A29G, G30C, A31G
DNA 1: CAATCTGAATTCCGGTCTCCC
DNA 2: TGGTGGCTACGACGGGATT
B5: UACUGCU (DNA:RNA)
RNA: B1 RNA with G26A, A27C, A29G, G30C, A31U
DNA 1: CAATCTGAATTCCGGTCTCCC
DNA 2: TGGTGGCTACGACGGGATT
B6: AAACCUA (DNA:RNA)
RNA: B1 RNA with U25A, G26A, U28C, A29C, G30U
DNA 1: CAATCTGAATTCCGGTCTCCC
DNA 2: TGGTGGCTACGACGGGATT
B7: GGAAAUC (DNA:RNA)
RNA: B1 RNA with U25G, U28A, G30U, A31C
DNA 1: CAATCTGAATTCCGGTCTCCC
DNA 2: TGGTGGCTACGACGGGATT
B8: CGGCCUG (DNA:RNA)
RNA: B1 RNA with U25C, A27G, U28C, A29C, G30U, A31G
DNA 1: CAATCTGAATTCCGGTCTCCC
DNA 2: TGGTGGCTACGACGGGATT
B9: UGGUAGA (DNA:RNA)
RNA: B1 RNA with A27G
DNA 1: CAATCTGAATTCCGGTCTCCC
DNA 2: TGGTGGCTACGACGGGATT
B10: CGAUCCC (DNA:RNA)
RNA: B1 RNA with U25C, A29C, G30C, A31C
DNA 1: CAATCTGAATTCCGGTCTCCC
DNA 2: TGGTGGCTACGACGGGATT
B11: GCCUAGU (DNA:RNA)
RNA: B1 RNA with U25G, G26C, A27C, A31U
DNA 1: CAATCTGAATTCCGGTCTCCC
DNA 2: TGGTGGCTACGACGGGATT
B12: AAGGCUA (DNA:RNA)
RNA: B1 RNA with U25A, G26A, A27G, U28G, A29C, G30U
DNA 1: CAATCTGAATTCCGGTCTCCC
DNA 2: TGGTGGCTACGACGGGATT
B13: CGUCUGG (DNA:RNA)
RNA: B1 RNA with U25C, A27U, U28C, A29U, A31G
DNA 1: CAATCTGAATTCCGGTCTCCC
DNA 2: TGGTGGCTACGACGGGATT
B14: GCCUUGU (DNA:RNA)
RNA: B1 RNA with U25G, G26C, A27C, A29U, A31U
DNA 1: CAATCTGAATTCCGGTCTCCC
DNA 2: TGGTGGCTACGACGGGATT
B15: GAACGAU (DNA:RNA)
RNA: B1 RNA with U25G, G26A, U28C, A29G, G30A, A31U
DNA 1: CAATCTGAATTCCGGTCTCCC
DNA 2: TGGTGGCTACGACGGGATT
B16: CUGCACA (DNA:RNA)
RNA: B1 RNA with U25C, G26U, A27G, U28C, G30C
DNA 1: CAATCTGAATTCCGGTCTCCC
DNA 2: TGGTGGCTACGACGGGATT
B17: CCACUCA (DNA:RNA)
RNA: B1 RNA with U25C, G26C, U28C, A29U, G30C
DNA 1: CAATCTGAATTCCGGTCTCCC
DNA 2: TGGTGGCTACGACGGGATT
B18: GUUCAGG (DNA:RNA)
RNA: B1 RNA with U25G, G26U, A27U, U28C, A31G
DNA 1: CAATCTGAATTCCGGTCTCCC
DNA 2: TGGTGGCTACGACGGGATT
B19: GAAAAAA (DNA:RNA)
RNA: B1 RNA with U25G, G26A, U28A, G30A
DNA 1: CAATCTGAATTCCGGTCTCCC
DNA 2: TGGTGGCTACGACGGGATT
B20: CUGCGUC (DNA:RNA)
RNA: GGGAGACCGGAAUUCAGAUUGUCCCUGCGUCUUAAAUCCCGUCGUAGCCACCA
DNA 1: CAATCTGAATTCCGGTCTCCC
DNA 2: TGGTGGCTACGACGGGATT
B21: UCACACU (DNA:RNA)
RNA: B1 RNA with G26C, U28C, G30C, A31U
DNA 1: CAATCTGAATTCCGGTCTCCC
DNA 2: TGGTGGCTACGACGGGATT
B22: AGGCUAC (DNA:RNA)
RNA: B20 RNA with C25A, U26G, G29U, U30A
DNA 1: CAATCTGAATTCCGGTCTCCC
DNA 2: TGGTGGCTACGACGGGATT
B23: CGGAAAA (DNA:RNA)
RNA: B1 RNA with U25C, A27G, U28A, G30A
DNA 1: CAATCTGAATTCCGGTCTCCC
DNA 2: TGGTGGCTACGACGGGATT
B24: ACCUCUA (DNA:RNA)
RNA: B1 RNA with U25A, G26C, A27C, A29C, G30U
DNA 1: CAATCTGAATTCCGGTCTCCC
DNA 2: TGGTGGCTACGACGGGATT
B25: CAACGGC (DNA:RNA)
RNA: B20 RNA with U26A, G27A, U30G
DNA 1: CAATCTGAATTCCGGTCTCCC
DNA 2: TGGTGGCTACGACGGGATT
B26: GUACUAC (DNA:RNA)
RNA: B20 RNA with C25G, G27A, G29U, U30A
DNA 1: CAATCTGAATTCCGGTCTCCC
DNA 2: TGGTGGCTACGACGGGATT
B27: CUACCUA (DNA:RNA)
RNA: B20 RNA with G27A, G29C, C31A
DNA 1: CAATCTGAATTCCGGTCTCCC
DNA 2: TGGTGGCTACGACGGGATT
B28: UUGGAAG (DNA:RNA)
RNA: B20 RNA with C25U, C28G, G29A, U30A, C31G
DNA 1: CAATCTGAATTCCGGTCTCCC
DNA 2: TGGTGGCTACGACGGGATT
B29: GCUGAUA (DNA:RNA)
RNA: B1 RNA with U25G, G26C, A27U, U28G, G30U
DNA 1: CAATCTGAATTCCGGTCTCCC
DNA 2: TGGTGGCTACGACGGGATT
B30: GUCCCUC (DNA:RNA)
RNA: B20 RNA with C25G, G27C, G29C
DNA 1: CAATCTGAATTCCGGTCTCCC
DNA 2: TGGTGGCTACGACGGGATT
B31: ACUGUGA (DNA:RNA)
RNA: B1 RNA with U25A, G26C, A27U, U28G, A29U
DNA 1: CAATCTGAATTCCGGTCTCCC
DNA 2: TGGTGGCTACGACGGGATT

The values that follow come from publication PMC9911399, “Two distinct binding modes provide the RNA-binding protein RbFox with extraordinary sequence specificity”.

Where a chain is given by its changes, count along the chain named. The list shows a part of the results.

In this assay the target is T1, RBFOX1 RRM. The experiment in a line: EMSA; HiTS-Eq, 1 nM pool, 10 min; buffer printed only for the single-RNA assays: 10 mM Tris pH 7.5, 150 mM NaCl, 3.4 mM EDTA, 0.001% NP-40, 30 C. To be noted: tags: His6 N-terminal (pET28a); label: 5' 32P. The essentials:
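Relative association constants, normalised to the cognate motif, were derived by comparing read counts of each RNA species with those of the control reaction. The RNA sequenced was the free fraction, separated by 8% native PAGE after a 10 min equilibration in 50 µL of 1 nM 5′-radiolabelled RNA (7 randomized nucleotides) with increasing concentrations of purified wild-type or mutant RbFox RRM.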
(In general: In EMSA bound probe runs differently from free probe, usually more slowly.)
For B1, the binding signal is 0.0266 KA relative to UGCAUGU. The same measure for B2: 0.0103 KA relative to UGCAUGU; for B3: 0.00955 KA relative to UGCAUGU. The same measure for B4: 0.0113 KA relative to UGCAUGU. As for B5, the binding signal is 0.0129 KA relative to UGCAUGU. For the molecule B6, the binding signal was 0.00216 KA relative to UGCAUGU.

In the case of B7, the binding signal was 0.0138 KA relative to UGCAUGU. Then B8, with 0.0257 KA relative to UGCAUGU. Then B9, with 0.0163 KA relative to UGCAUGU. As for B10, the binding signal is 0.00576 KA relative to UGCAUGU. Then B11, with 0.0103 KA relative to UGCAUGU; and B12, with 0.00647 KA relative to UGCAUGU. Then B13, with 0.0169 KA relative to UGCAUGU; and B14, with 0.0256 KA relative to UGCAUGU; and B15, with 0.0117 KA relative to UGCAUGU. For B16, the binding signal was 0.0115 KA relative to UGCAUGU.

In the case of B17, the binding signal was 0.0037 KA relative to UGCAUGU. The same measure for B18: 0.0107 KA relative to UGCAUGU; for B19: 0.000762 KA relative to UGCAUGU; for B20: 0.0157 KA relative to UGCAUGU. Consider B21, for which the binding signal was 0.00248 KA relative to UGCAUGU. The same measure for B22: 0.0132 KA relative to UGCAUGU.

Consider B23, for which the binding signal was 0.0186 KA relative to UGCAUGU. B24: the binding signal is 0.00197 KA relative to UGCAUGU.

Turning to B25, the binding signal was 0.00622 KA relative to UGCAUGU.

With B26, the binding signal is 0.00345 KA relative to UGCAUGU. Turning to B27, the binding signal was 0.00199 KA relative to UGCAUGU. For B28, the binding signal was 0.0207 KA relative to UGCAUGU. The same measure for B29: 0.0206 KA relative to UGCAUGU; for B30: 0.00747 KA relative to UGCAUGU; for B31: 0.0104 KA relative to UGCAUGU.
